Reference: PubChem BioAssay (NCATS)
Inconclusive results, whose numbers are uncertain, are shown with a selection of clear calls. For part of these data: No potency is given beside an inconclusive call; the fits are too rough. Activity calls are given as the source filed them. Unless noted, calls come from the whole dose curve; as a rule, active = well fitted curve in the direction sought with a large enough effect; inconclusive = small, poorly fitted or top-dose-only effect, or another doubt; inactive = no such curve, though single readings can be large; an effect the other way counts as inactive or inconclusive.

Key:
[1] = Cell Viability - Jurkat (AID 426;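 active = dose-dependent loss of cell ATP signal giving a full or clear fitted curve, ranked by lower potency value; inconclusive = weak partial curve or response only at the top dose; inactive = no loss of viability signal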;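 note: potency is the fitted concentration of half-maximal effect; cells exposed to compound for 40 hours at 37 °C before ATP read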); details: qHTS
Outline: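 Luminescent ATP read-out (CellTiter-Glo, 20 min at room temperature) after 40 hr compound exposure at 37 °C of Jurkat E6-1 cells, 5000/well. Decreased ATP taken as cytotoxicity; AC50 from standard Hill equation.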

[2] = molecular target: Mitogen-activated protein kinase 10 (Mus musculus) (UniProt Q61831); assay: JNK3 AlphaScreen Assay (AID 530; active = well fitted curve in either direction with a large enough effect, not every such curve was filed as active; inconclusive = small, poorly fitted or top-dose-only effect, or another doubt;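 note: kinase came from lysate of stimulated human HepG2 cells; signal reports phosphorylation of biotinylated GST-cJun 1-79 at Ser73 with 10 µM ATP; % is set by controls: 0 for no effect and ±100 for the full control effect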); details: JNK3 lysate, c-Jun phosphorylation; activity change, negative = inhibition: at 57.1 µM (top of the series)
Outline: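 Kinase buffer: 20 mM Tris-HCl pH 7.6, 10 mM MgCl2, 1 mM DTT, 0.1 mM Na3VO4, 0.01% Tween-20; ATP 10 uM. Substrate biotin-GST-cJun(1-79), enzyme from activated HepG2 lysates. Detection by Ser73 phospho-antibody AlphaScreen.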

[3] = Cell Viability - Renal Proximal Tubule (AID 545); details: renal proximal tubule cells viability, primary cells of rat origin; activity change, negative = cytotoxicity: at 91.7 µM (top of the series);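 note: cells exposed to compound for 40 hours; 0% = DMSO only and -100% = 100 µM tamoxifen; nearly all actives have a fitted effect of over 40% in size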
Outline: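 Rat kidney proximal tubule cells, freshly isolated; 1000 cells/well, 5 hr settle, compound 40 hr 37 °C. CellTiter-Glo 20 min RT, luminescence read. AC50 by standard Hill fit.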

[4] = molecular target: Cytochrome P450 3A4 (Homo sapiens) (UniProt P08684); assay: qHTS Assay for Inhibitors and Substrates of Cytochrome P450 3A4 (AID 884); note: % is set by controls: 0 for no effect and ±100 for the full control effect; nearly all actives have a fitted effect of over 50% in size
Outline: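 Luminescent readout of luciferin produced by CYP3A4 (20 nM) dealkylation of Luciferin-PPXE, 25 uM (its KM). NADPH-driven reaction ran 60 min at RT after 10 min compound preincubation; data scaled to 57 uM ketoconazole as 100% inhibition.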

[5] = Cell Viability - LYMP2-001 (AID 921); note: potency is the fitted concentration of half-maximal effect; nearly all actives have a fitted effect of over 70% in size
Outline: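 CellTiter-Glo luminescence (intracellular ATP) after 24 hr compound exposure at 37 C, 2500 lymphoblastoid cells/well in complete medium. AC50 fitted with standard Hill equation; tetraoctylammonium bromide positive control.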

[6] = MultiTox-Fluor Cytotoxicity Assay - LYMP1-001 - Live Cells (AID 947); note: potency is the fitted concentration of half-maximal effect
[7] = MultiTox-Fluor Cytotoxicity Assay - LYMP1-003 - Live Cells (AID 962);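 note: potency is the fitted concentration of half-maximal effect; cells exposed to compound for 16 hours at 37 °C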
Outline: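 Readout: live-cell fluorescence (Ex/Em=405/510) from GF-AFC cleavage after 60 min MultiTox-Fluor reagent at room temperature. Lymphoblastoid LYMP1-003 cells, 16 hr compound treatment, 37 C. Concentration-response fitted to standard Hill equation for AC50.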

[8] = Cell Viability - LYMP2-003 (AID 965);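 note: potency is the fitted concentration of half-maximal effect; cells exposed to compounds for 24 h before reading; nearly all actives have a fitted effect of over 50% in size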
Outline: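 CellTiter-Glo luminescence (cellular ATP) after 24 h compound exposure at 37 C in complete medium; 2500 cells/well, 5 h settling beforehand. Concentration-response fitted to standard Hill equation for AC50. Tetraoctylammonium bromide served as positive control.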

[9] = Cell Viability - LYMP2-005 (AID 967); note: potency is the fitted concentration of half-maximal effect
Outline: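 Steps: seed 2500 LYMP2-005 cells/well, incubate 5 h at 37 C, add compound, incubate 24 h at 37 C, add CellTiter-Glo, wait 30 min at RT, read luminescence. Concentration-response data fitted to Hill equation for AC50.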

[10] = Cell Viability - LYMP2-011 (AID 969);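 note: potency is the fitted concentration of half-maximal effect; cells exposed to compound for 24 hours; nearly all actives have a fitted effect of over 60% in size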
Outline: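 Luminescent ATP read-out (CellTiter-Glo, 30 min RT) after 24 hr compound exposure at 37 C in human lymphoblastoid cells, 2500 cells/well. Decreasing ATP indicates cytotoxicity; AC50 from standard Hill fit.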

[11] = Cell Viability - LYMP2-013 (AID 970); details: LYMP2-013 lymphoblastoid cells viability; activity change, negative = cytotoxic: at 92.2 µM (top of the series); note: potency is the fitted concentration of half-maximal effect; nearly all actives have a fitted effect of over 55% in size
Outline: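 CellTiter-Glo luminescence (cellular ATP) read after 30 min at RT. Cells: human lymphoblastoid line, 2500/well, 24 hr compound exposure at 37 C. Tetraoctylammonium bromide positive control; AC50 via standard Hill fit of qHTS titrations.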

[12] = Cell Viability - LYMP2-015 (AID 971); note: potency is the fitted concentration of half-maximal effect; nearly all actives have a fitted effect of over 55% in size
Outline: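 qHTS cytotoxicity: 2500 cells/well, 5 hr 37 C, compound 24 hr 37 C, CellTiter-Glo 30 min RT, luminescence. Loss of ATP = toxicity; AC50 via standard Hill fit.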

[13] = Cell Viability - LYMP2-017 (AID 972);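 note: potency is the fitted concentration of half-maximal effect; cells exposed to compound for 24 hours at 37 °C; nearly all actives have a fitted effect of over 55% in size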
Outline: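 Luminescent ATP read-out (CellTiter-Glo, 30 min RT) reports viable cell number. Cells: human lymphoblastoid line, 2500 per well, 5 hr preincubation, 24 hr compound exposure at 37 C. AC50 is derived from qHTS concentration-response data using the standard Hill model.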

[14] = Cell Viability - LYMP2-021 (AID 974);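 note: potency is the fitted concentration of half-maximal effect; compound exposure lasts 24 hours at 37 °C; nearly all actives have a fitted effect of over 55% in size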
Outline: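 ATP luminescence (CellTiter-Glo, 30 min RT) after 24 h compound exposure at 37 C; 2500 human lymphoblastoid cells/well, 5 h settle beforehand. Cytotoxicity = concentration-dependent ATP drop, AC50 by Hill fit.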

[15] = Cell Viability - LYMP2-007 (AID 979); details: LYMP2-007 lymphoblastoid cell viability; activity change, negative = cytotoxicity: at 92.2 µM (top of the series);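 note: potency is the fitted concentration of half-maximal effect; cells exposed to compound for 24 h before reading; nearly all actives have a fitted effect of over 60% in size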
Outline: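 qHTS cytotoxicity: 2500 cells/well, 5 hr 37 C settle, compound 24 hr 37 C, CellTiter-Glo 30 min RT, luminescence. Decrease in ATP = toxicity. AC50 by standard Hill equation; tetraoctylammonium bromide positive control.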

[16] = Cell Viability - LYMP2-016 (AID 984); details: LYMP2-016 lymphoblastoid cell viability, qHTS; activity change, negative = cytotoxicity: at 92.2 µM (top of the series)
Outline: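 qHTS, 1536-well: 2500 LYMP2-016 cells/well, 5 hr 37 C, compound added, 24 hr 37 C, CellTiter-Glo 30 min RT, luminescence. Tetraoctylammonium bromide positive control. AC50 via Hill fit.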

[17] = Cell Viability - LYMP2-018 (AID 985); note: potency is the fitted concentration of half-maximal effect; nearly all actives have a fitted effect of over 50% in size
Outline: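 2500 cells/well; 5 hr 37 C; cmpd 24 hr 37 C, complete medium; CellTiter-Glo 30 min RT; luminescence. Tetraoctylammonium bromide positive control. AC50 via Hill fit.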

[18] = Cell Viability - LYMP2-020 (AID 986); details: activity change, negative = viability loss: at 92.2 µM (top of the series)
Outline: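 qHTS, 2500 cells/well; 5 hr then 24 hr compound exposure, 37 C; CellTiter-Glo luminescence after 30 min RT; ATP decrease taken as cytotoxicity; AC50 via Hill equation; tetraoctylammonium bromide positive control.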

[19] = Cell Viability - LYMP2-022 (AID 987)
Outline: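 Luminescent ATP read-out (CellTiter-Glo, 30 min, RT) after 24 hr, 37 C compound exposure of 2500 human lymphoblastoid cells/well in complete medium. Cytotoxicity taken as concentration-dependent ATP loss; AC50 from standard Hill equation.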

[20] = Cell Viability - LYMP1-002 - Assay at 40 hr (AID 994); note: potency is the fitted concentration of half-maximal effect; nearly all actives have a fitted effect of over 60% in size
Outline: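 qHTS cytotoxicity; 2500 cells/well, 5 hr 37 C settle, compound 40 hr 37 C. CellTiter-Glo, 30 min RT, luminescence (ATP). Concentration-response, Hill fit → AC50. Pos. ctrl tetraoctylammonium bromide.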

[21] = molecular target: Estrogen receptor (Homo sapiens) (UniProt P03372); assay: qHTS assay for small molecule agonists of estrogen receptor alpha signaling (AID 588514; calls by dose curve;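 note: 0% = vehicle only and 100% = reference agonist; nearly all actives have a fitted effect of over 70% in size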); details: ER-alpha-UAS-bla HEK293, beta-lactamase ratio, 18 h; activation: at 76.8 µM (top of the series), percent of full estradiol response, vehicle zero
Outline: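 Read-out: CCF4 fluorescence from a beta-lactamase reporter in ER-alpha-UAS-bla HEK 293 cells after 18 hrs of compound exposure at 37 C. Normalized to 20 nM 17-beta-estradiol (100%) and DMSO (0%).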

[22] = molecular target: Glucocorticoid receptor (Homo sapiens) (UniProt P04150); assay: qHTS assay for small molecule antagonists of glucocorticoid receptor signaling (AID 588533; active = well fitted inhibition curve with a large enough effect in the signal ratio, with a control signal flat, not every such curve was filed as active; inconclusive = small, poorly fitted or top-dose-only effect, or effect the other way, or a change in a side signal; the % refers to the signal ratio;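 note: cells stimulated with 2 nM dexamethasone as agonist; % is set by controls: 0 for no effect and ±100 for the full control effect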); details: HeLa MMTV-bla, GRE beta-lactamase ratio, antagonist mode, 18 h; activity change, negative = inhibition: at 76.8 µM (top of the series)
[23] = molecular target: Peroxisome proliferator-activated receptor gamma (Homo sapiens) (UniProt P37231); assay: qHTS assay for small molecule agonists of peroxisome proliferator-activated receptor gamma signaling (AID 588536; active = well fitted curve in the direction sought with a large enough effect in the signal ratio, with a control signal flat, not every such curve was filed as active; inconclusive = small, poorly fitted or top-dose-only effect, or effect the other way, or a change in a side signal; inactive = no such curve, though single readings can be large or run the other way; the % refers to the signal ratio;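 note: 0% = DMSO basal wells and 100% = rosiglitazone at 2 µM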); details: HEK293 PPARg-UAS-bla, beta-lactamase ratio, 16 h; activation: at 76.7 µM (top of the series), percent of rosiglitazone response, DMSO as zero
Outline: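 Compound treatment: 16 h, 37 C, HEK293 GeneBLAzer cells. Detection: CCF4, 2 h RT. Values: Hill-fit EC50, efficacy as % of 2 uM rosiglitazone.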

[24] = molecular target: Peroxisome proliferator-activated receptor gamma (Homo sapiens) (UniProt P37231); assay: qHTS assay for small molecule antagonists of peroxisome proliferator-activated receptor gamma signaling (AID 588537; active = well fitted inhibition curve with a large enough effect in the signal ratio, with a control signal flat, not every such curve was filed as active; inconclusive = small, poorly fitted or top-dose-only effect, or effect the other way, or a change in a side signal; the % refers to the signal ratio;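 note: reporter cells co-stimulated with 50 nM rosiglitazone agonist during compound treatment; % of control where 0% means no effect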); details: HEK293 PPARg-UAS-bla, beta-lactamase ratio, antagonist mode; activity, negative = inhibition: at 76.8 µM (top of the series)
Outline: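 Cell-based beta-lactamase assay; GW9662 served as the antagonist control. Stimulation used rosiglitazone, final 50 nM, 16 h, 37 C.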

[25] = molecular target: Retinoic acid receptor RXR-alpha (Homo sapiens) (UniProt P19793); assay: qHTS assay for small molecule agonists of retinoid X receptor alpha signaling (AID 588544; calls by dose curve;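 note: 0% = DMSO basal wells and 100% = reference agonist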); details: HEK293T RXRa-UAS-bla, beta-lactamase reporter, 18 h; activation: at 76.7 µM (top of the series) unless noted
[26] = molecular target: Retinoic acid receptor RXR-alpha (Homo sapiens) (UniProt P19793); assay: qHTS assay for small molecule antagonists of retinoid X receptor alpha signaling (AID 588546; active = well fitted inhibition curve with a large enough effect in the signal ratio, with a control signal flat, not every such curve was filed as active; inconclusive = small, poorly fitted or top-dose-only effect, or effect the other way, or a change in a side signal; inactive = no such curve, though single readings can be large or run the other way; the % refers to the signal ratio; note: potency is the fitted concentration of half-maximal effect); details: HEK293T RXRa-UAS-bla, beta-lactamase ratio, antagonist mode
Outline: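 Beta-lactamase reporter inhibition, read as CCF4 fluorescence ratio (ex 405, em 460/530 nm) after 2 h at RT. HEK293T UAS-bla cells, 2500/well, were stimulated with 9-cis-RA at 500 or 100 nM final alongside test compound for 18 h at 37 C.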

[27] = qHTS assay for small molecule agonists of the antioxidant response element (ARE) signaling pathway (AID 651741; active = well fitted activation curve with a large enough effect in the signal ratio; inconclusive = small, poorly fitted or top-dose-only effect, or effect the other way, or a change in a side signal; the % refers to the signal ratio; note: potency is the fitted concentration of half-maximal effect); details: HepG2 ARE-bla reporter, beta-lactamase FRET ratio, 16 h; activation: at 96 µM (top of the series) unless noted
Outline: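 Agonist activity is measured as ARE-driven beta-lactamase expression in a stable HepG2 reporter line, using 16 h compound treatment at 37 C and a FRET substrate fluorescence readout after 2 h.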

[28] = qHTS assay for small molecule disruptors of the mitochondrial membrane potential - 1 hr assay (AID 651754; calls by dose curve; note: potency is the fitted concentration of half-maximal effect; nearly all actives have a fitted effect of over 35% in size); details: ratio change, negative = depolarisation: at 92.2 µM (top of the series)
Outline: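 Read-out: dye fluorescence at 490 nm ex/535 nm em (monomers) and 540 nm ex/590 nm em (aggregates) in HepG2 cells. Compound exposure 1 hr at 37C, followed by 30 min dye loading.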

[29] = qHTS assay for small molecule disruptors of the mitochondrial membrane potential - 5 hr assay (AID 651755; calls by dose curve; note: potency is the fitted concentration of half-maximal effect; nearly all actives have a fitted effect of over 40% in size); details: JC-1-type ratio dye; ratio change, negative = disruption: at 92.2 µM (top of the series)
Outline: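 Membrane-potential dye readout: red aggregate (540 ex/590 em) versus green monomer (490 ex/535 em) fluorescence after 30 min dye loading, following 5 hr compound exposure at 37C of overnight-plated HepG2 cells.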

[30] = molecular target: Tumor necrosis factor (Homo sapiens) (UniProt P01375); assay: qHTS assay to identify small molecules that stimulate Tumor Necrosis Factor-alpha (TNF-alpha) secretion (AID 651757; active = well fitted curve in the direction sought with a large enough effect in the signal ratio; inconclusive = small, poorly fitted or top-dose-only effect, or a change in a side signal; inactive = no such curve, though single readings can be large or run the other way; the % refers to the signal ratio; note: 0% is about no effect); details: Human cells, HTRF 665/615 ratio; activation (TNF-alpha secretion): at 92.2 µM (top of the series)
Outline: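 THP-1 cells, 3000/well; compound 17 hrs, 37 C; add cryptate/XL665 anti-TNF-alpha antibody pair; 3 hr RT; TR-FRET (HTRF) read of secreted TNF-alpha. Quantitative HTS format.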
Tags give direction and shape of the fitted curve or compound fluorescence and quenching.

Sequence of UniProt P19793 (P19793 whole entry, looked up): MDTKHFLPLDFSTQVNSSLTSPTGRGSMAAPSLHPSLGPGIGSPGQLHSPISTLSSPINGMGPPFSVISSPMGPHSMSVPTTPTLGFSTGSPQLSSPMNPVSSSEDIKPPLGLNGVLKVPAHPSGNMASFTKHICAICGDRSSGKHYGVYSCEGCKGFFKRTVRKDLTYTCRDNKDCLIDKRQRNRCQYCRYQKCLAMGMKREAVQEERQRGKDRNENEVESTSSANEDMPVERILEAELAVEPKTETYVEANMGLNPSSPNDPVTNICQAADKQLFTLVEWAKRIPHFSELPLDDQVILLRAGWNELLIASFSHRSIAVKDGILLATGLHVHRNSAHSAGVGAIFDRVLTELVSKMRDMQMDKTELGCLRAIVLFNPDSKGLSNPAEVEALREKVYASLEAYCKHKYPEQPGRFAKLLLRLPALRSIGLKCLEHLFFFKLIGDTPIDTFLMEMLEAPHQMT
Sequence of UniProt P08684 (P08684 whole entry, looked up): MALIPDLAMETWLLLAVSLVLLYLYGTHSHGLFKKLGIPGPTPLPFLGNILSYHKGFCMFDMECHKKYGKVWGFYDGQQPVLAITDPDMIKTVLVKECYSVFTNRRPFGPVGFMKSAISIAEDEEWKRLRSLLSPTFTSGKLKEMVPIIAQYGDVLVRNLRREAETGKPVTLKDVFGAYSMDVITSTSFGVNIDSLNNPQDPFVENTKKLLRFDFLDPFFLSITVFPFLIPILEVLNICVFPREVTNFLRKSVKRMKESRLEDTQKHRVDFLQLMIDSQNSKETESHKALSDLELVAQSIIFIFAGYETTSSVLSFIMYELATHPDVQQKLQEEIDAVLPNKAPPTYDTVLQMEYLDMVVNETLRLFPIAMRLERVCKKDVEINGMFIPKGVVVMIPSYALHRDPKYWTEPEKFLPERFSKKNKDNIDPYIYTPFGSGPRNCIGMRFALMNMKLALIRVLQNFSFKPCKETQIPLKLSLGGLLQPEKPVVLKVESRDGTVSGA
Sequence of UniProt P01375 (P01375 whole entry, looked up): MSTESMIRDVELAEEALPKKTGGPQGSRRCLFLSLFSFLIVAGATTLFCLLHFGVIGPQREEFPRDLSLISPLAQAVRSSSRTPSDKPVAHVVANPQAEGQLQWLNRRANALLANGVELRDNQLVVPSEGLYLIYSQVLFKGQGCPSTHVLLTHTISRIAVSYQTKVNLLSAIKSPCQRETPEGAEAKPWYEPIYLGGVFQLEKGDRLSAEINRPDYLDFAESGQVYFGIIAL
Sequence of UniProt P03372 (P03372 whole entry, looked up): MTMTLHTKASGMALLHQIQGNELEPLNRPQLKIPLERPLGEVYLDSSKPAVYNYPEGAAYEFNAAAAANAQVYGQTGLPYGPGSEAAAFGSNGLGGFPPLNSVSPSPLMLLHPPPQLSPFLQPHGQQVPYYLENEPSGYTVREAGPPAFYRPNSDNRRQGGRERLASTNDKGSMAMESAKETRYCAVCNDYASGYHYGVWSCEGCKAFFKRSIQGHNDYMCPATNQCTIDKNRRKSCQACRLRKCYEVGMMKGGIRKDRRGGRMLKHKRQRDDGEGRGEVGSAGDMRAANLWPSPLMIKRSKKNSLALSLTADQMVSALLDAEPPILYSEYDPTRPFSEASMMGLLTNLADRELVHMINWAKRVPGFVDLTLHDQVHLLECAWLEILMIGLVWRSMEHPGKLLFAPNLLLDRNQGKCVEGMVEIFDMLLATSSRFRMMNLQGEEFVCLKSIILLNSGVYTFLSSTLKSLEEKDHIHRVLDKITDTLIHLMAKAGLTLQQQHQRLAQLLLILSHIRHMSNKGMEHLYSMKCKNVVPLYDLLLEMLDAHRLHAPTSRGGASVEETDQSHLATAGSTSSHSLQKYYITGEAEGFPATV
Sequence of UniProt P04150 (P04150 whole entry, looked up): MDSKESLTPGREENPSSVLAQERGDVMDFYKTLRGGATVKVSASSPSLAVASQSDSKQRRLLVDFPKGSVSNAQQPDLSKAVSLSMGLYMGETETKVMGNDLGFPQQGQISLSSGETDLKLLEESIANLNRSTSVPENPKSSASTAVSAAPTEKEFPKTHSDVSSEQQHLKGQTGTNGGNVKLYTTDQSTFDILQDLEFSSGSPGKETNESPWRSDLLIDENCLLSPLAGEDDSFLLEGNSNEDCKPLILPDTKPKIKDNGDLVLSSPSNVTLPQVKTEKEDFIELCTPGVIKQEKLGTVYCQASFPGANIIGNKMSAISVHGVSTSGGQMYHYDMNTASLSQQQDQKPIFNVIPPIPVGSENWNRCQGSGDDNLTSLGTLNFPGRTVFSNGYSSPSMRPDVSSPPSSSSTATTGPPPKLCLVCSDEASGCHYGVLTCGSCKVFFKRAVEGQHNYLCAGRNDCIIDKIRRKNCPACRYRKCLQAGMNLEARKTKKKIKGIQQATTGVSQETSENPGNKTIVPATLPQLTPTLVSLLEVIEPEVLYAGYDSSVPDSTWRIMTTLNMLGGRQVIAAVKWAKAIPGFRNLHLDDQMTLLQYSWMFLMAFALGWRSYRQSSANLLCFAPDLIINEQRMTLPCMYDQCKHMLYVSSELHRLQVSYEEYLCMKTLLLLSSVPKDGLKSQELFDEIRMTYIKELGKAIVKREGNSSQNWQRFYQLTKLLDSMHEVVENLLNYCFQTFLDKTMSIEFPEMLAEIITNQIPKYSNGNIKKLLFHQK

O=Nc1ccc(NO)cc1
Potency [1]: active: 51.1 µM | Potency [2]: inactive | activity change, negative = cytotoxicity [3]: inconclusive: -30.7% | Potency [4]: inactive | Potency [5]: inconclusive [cytotoxic, partial curve, poor fit] | Potency [6]: inconclusive [cytotoxic, partial curve] | Potency [7]: inconclusive [cytotoxic, partial curve] | Potency [8]: active: 50.1 µM | Potency [9]: inconclusive [cytotoxic, partial curve, poor fit] | Potency [10]: inconclusive [cytotoxic, partial curve, poor fit] | Potency [11]: active: 50.1 µM | Potency [12]: inconclusive [cytotoxic, partial curve, poor fit] | Potency [13]: inconclusive [cytotoxic, partial curve] | Potency [14]: active: 50.1 µM | Potency [15]: inconclusive [cytotoxic, partial curve] | Potency [16]: inconclusive [cytotoxic, partial curve, poor fit] | Potency [17]: inconclusive [cytotoxic, full curve, poor fit] | Potency [18]: inconclusive [cytotoxic, partial curve, poor fit] | Potency [19]: inconclusive [cytotoxic, partial curve, poor fit] | Potency [20]: inconclusive [cytotoxic, partial curve] | activation [21]: inconclusive: 98.8% | Potency [22]: inactive | Potency [23]: inactive | activity, negative = inhibition [24]: inconclusive: -1.14% | activation [25]: inconclusive: -19.4% | Potency [26]: inconclusive [inhibitor, full curve, poor fit] | Potency [27]: active: 13.3 µM | Potency [28]: inconclusive [inhibitor, partial curve] | Potency [29]: inconclusive [inhibitor, partial curve] | activation (TNF-alpha secretion) [30]: inconclusive: 0.323%
